# Measured values published in PubChem BioAssay AID493208 (National Center for Advancing Translational Sciences (NCATS), 2011).
# In all, about 44,000 compounds went through this assay and about 340 (0.77%) were called active. Roughly 5% stayed inconclusive and do not appear here. The call rests on the fitted dose curve; in most records, active means well fitted inhibition curve with a large enough effect; inconclusive means small, poorly fitted or top-dose-only effect; inactive means flat fitted curve, though single readings scatter. Some of the results follow.
# Experiment: Acumen qHTS Assay for Inhibitors of the mTORC1 Signaling Pathway in MEF (Tsc2-/-, p53-/-) Cells: Sytravon;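 further: plate controls were DMSO for no effect and rapamycin for full effect; nearly all actives have a fitted effect of over 50% in size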
# Settings: phospho-rpS6 immunofluorescence/PI, 24 h; series mostly up to 38.3 µM; activity change, negative = inhibition: at the top concentration
# Method in brief: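 Immunofluorescence of rpS6 phosphorylation in Tsc2-/-, p53-/- MEFs after 24 h compound exposure, normalized to propidium iodide signal. Activity is expressed as % positive cells, thresholded with 7.5 nM rapamycin.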
row,SMILES,"activity change, negative = inhibition"
1,CCOc1ccccc1CNC(=O)c1cnc2sc(N(CC)CC)nn2c1=O,inactive: -0.921%
2,Cc1ccc2nc(COc3cccc(NC(=O)c4ccccc4Cl)c3)cc(=O)n2c1,inactive: 0.719%
3,CCc1ccc(-c2nc(CS(=O)CC(=O)NCCc3ccc(C)cc3)c(C)o2)cc1 (stereo unspecified),inactive: -0.574%
4,CCOc1ccc(N(C)C(=O)c2oc(=O)c3ccccc3c2-c2ccccc2)cc1,inactive: -2.36%
5,CC(C)c1cnc2c(c1SCC(=O)NC(C)(C)C)c(=O)n(C)c(=O)n2C,inactive: 8.44%
6,O=C(O)CC1c2ccccc2CCN1C(=O)Nc1cc(Cl)ccc1Cl (stereo unspecified),inactive: 0%
7,CCn1cc2c(n1)-c1c(oc(C(=O)Nc3ccc(Br)cc3F)c1C)CC2,inactive: -3.1%
8,Cc1ccc(N(CC(=O)N2CCN(c3cc(C)ccc3C)CC2)S(=O)(=O)c2c(C)nn(C)c2C)cc1,inactive: -5.46%
9,CCOC(=O)c1noc2nc(C)n(CC(=O)Nc3cccc(OC)c3)c(=O)c12,inactive: 0.148%
10,Cc1ccc(CN(C(=O)c2ccc(OCC(C)C)cc2)c2ccccn2)o1,inactive: -8.08%
11,Cc1cc(Cl)ccc1-n1c(CCC(=O)O)ccc1-c1cccs1,inactive: -2.09%
12,CCCCC1CCC(C(=O)N2CC(=O)Nc3ccc(Br)cc3C2c2ccc(F)cc2)CC1 (stereo unspecified),inactive: -17.3%
13,CCc1ccc(S(=O)(=O)c2nnn3c2nc(N2CCN(c4ccccc4)CC2)c2cc(Cl)ccc23)cc1,inactive: 1.96%
14,Cc1cccc2c1-c1sc(C(=O)Nc3ccc(F)cc3F)cc1CO2,inactive: -10.5%
15,CCc1c(C)c2ccc(O)c(CN3CCN(c4cc(Cl)ccc4C)CC3)c2oc1=O,inactive: 1.03%
16,CCN(CC)C(=O)Cn1c(=O)n(CCCCCC(=O)NCc2ccc3c(c2)OCO3)c(=O)c2sccc21,inactive: 1.33%
17,O=c1c2sc3ccccc3c2n(Cc2cccc(F)c2)c(=O)n1CCc1ccccc1,inactive: 3.18%
18,CCC(=O)OCc1cc(=O)n2nc(C3CC3)sc2n1,inactive: -0.0754%
19,Cc1ccc(CNC(=O)C(=O)Nc2c3c(nn2-c2ccc(F)cc2)CSC3)cc1,inactive: -7.99%
20,Cc1ccc(NC(=O)CN2C(=O)COc3ccc(S(=O)(=O)N4CCCCCC4)cc32)c(C)c1,inactive: 4.31%
21,Cc1ccc(CNC(=O)c2ccc(N3CCCC3)c(NC(=O)Nc3ccc(C)cc3)c2)cc1,inactive: 0%

row,SMILES,"activity change, negative = inhibition"
1,CCCc1cc(=O)oc2c3c(ccc12)OCN(Cc1ccccc1OC)C3,inactive: -11.7%
2,CN(C(=O)Cn1nc(Cc2cccnc2)c2ccccc2c1=O)c1cccc(C(F)(F)F)c1,inactive: -11.3%
3,COC(=O)c1ccccc1NC(=O)[C@H]1O[C@@H]2OC(C)(C)O[C@@H]2[C@H]2OC(C)(C)O[C@H]21,inactive: -0.766%
4,Cc1cc(C)cc(OCC(=O)Nc2cccc3cccnc23)c1,inactive: -2.67%
5,CCCc1cnc2c(c1SCC(=O)NCc1ccc(C)cc1)c(=O)n(C)c(=O)n2C,inactive: 2.99%
6,CCCCCCC(=O)Nc1ccc2nc3c(=O)n(C)c(=O)n(C)c3nc2c1C,inactive: 7.04%
7,O=C(c1ccc2c(c1)N(Cc1ccc(Cl)cc1)C(=O)c1ccccc1S2(=O)=O)N1CCCC1,inactive: 0.456%
8,CCOC(=O)c1ccc(N2C(=O)c3n[nH]c(-c4ccco4)c3C2c2ccc(C(=O)OC)cc2)cc1 (stereo unspecified),inactive: -16.8%
9,CC(=O)Nc1cccc(-c2nc(-c3ccccc3)no2)c1,inactive: 1.27%
10,COc1ccccc1CCNC(=O)Cc1c(C)c2cc(Cl)c(O)cc2oc1=O,inactive: -2.01%
11,CCCCOc1ccccc1C1CC(=O)Nc2ccc3ccccc3c21 (stereo unspecified),inactive: -22.8%
12,CC(C)c1ccc(S(=O)(=O)N2CCN(Cc3cccc(F)c3)CC2)cc1,inactive: -18.1%
13,CCOc1ccc(CNC(=O)c2oc3c(c2C)-c2nn(Cc4cccc(Cl)c4)cc2CC3)cc1,inactive: 7.48%
14,COc1ccc(C)c2sc(NC(=O)c3ccc(S(=O)(=O)N(C)C)cc3)nc12,inactive: 5.23%
15,CCOc1ccc(-c2cccc(NS(=O)(=O)c3ccc(C)s3)c2)nn1,inactive: -0.419%
16,CCCCN(CC)C(=O)CSc1nc2n[nH]c(C)c2c(=N)n1-c1ccc(CC)cc1,inactive: 0.0765%
17,CCOC(=O)C1CCN(C(=O)c2cc3sc(C)cc3n2C)CC1,inactive: -4.61%
18,Cc1ccc(N(C)C(=O)c2sc3nc4n(c(=O)c3c2C)CCCC4)cc1C,inactive: 3.46%
19,COc1ccc(NC(=O)CSc2ncc3c(n2)-c2ccccc2N(Cc2ccc(C)cc2)S3(=O)=O)cc1Cl,inactive: -19.8%
20,COCCCn1c(=O)c2sccc2n2c(CCCC(=O)NCc3cccc(OC)c3)nnc12,inactive: 3.34%
21,CCOC(=O)C1CCN(C(=O)c2ccccc2NC(=O)c2nsc3ccccc23)CC1,inactive: 5.07%

row,SMILES,"activity change, negative = inhibition"
1,CCOc1ccc(NS(=O)(=O)c2c(C)nc3sc(C)c(C)n3c2=O)cc1,inactive: -4.26%
2,CCN1C(=O)c2ccccc2S(=O)(=O)c2ccc(C(=O)NCc3ccccc3)cc21,inactive: -10.2%
3,CCOC(=O)C1CCC(CN(Cc2ccc(Cl)cc2)S(=O)(=O)c2cccc(Cl)c2C)CC1 (stereo unspecified),inactive: 10.7%
4,Cc1nc2nc(NC(=O)c3ccc(C(C)(C)C)cc3)[nH]n2c(=O)c1C,inactive: -8.12%
5,CCCCOc1ccc(C(=O)Nc2ccc3c(c2)CCCN3C(=O)c2cccs2)cc1,inactive: 5.93%
6,O=C(CCC1N=C2c3ccccc3N=C(SCC(=O)Nc3cccc(Cl)c3)N2C1=O)NCc1ccco1 (stereo unspecified),inactive: -11.5%
7,NC(=O)C1CCN(S(=O)(=O)c2cc3c(cc2Cl)NC(=O)CO3)CC1,inactive: -4%
8,CCc1ccc(OCC2c3cc(OC)c(OC)cc3CCN2C(=O)c2ccc(S(=O)(=O)N3CCCC3)cc2)cc1 (stereo unspecified),inactive: 7.21%
9,CCn1cc(C(=O)NCCCOC(C)C)c(=O)c2cc(S(=O)(=O)N3CCOCC3)ccc21,inactive: 0.643%
10,Cc1cc(NC(=O)N2CCC(CN3CCCCCC3)CC2)ccc1Br,inactive: -3.71%
11,O=C(Cn1ccc2cc(S(=O)(=O)N3CCCCCC3)ccc21)NCc1ccccc1Cl,inactive: -7.05%
12,COc1cccc(NC(=O)c2c(C)nn(-c3cccc(C)c3)c2-n2cccc2)c1,inactive: -0.0384%
13,COc1cccc(CN2C(=O)CN(C3CCCCC3)C(=O)C2c2ccc(OC(C)C)c(OC)c2)c1 (stereo unspecified),inactive: 2.23%
14,COC(=O)c1ccc2c(=O)n(CCCCCC(=O)NCCc3ccccc3)c(=O)[nH]c2c1,inactive: -0.446%
15,CCC1Sc2ccccc2N(CC(=O)NCc2ccc(C)cc2)C1=O (stereo unspecified),inactive: 2.67%
16,O=S(=O)(c1ccc(Cl)cc1)c1nnn2c1nc(NC1CCCC1)c1sccc12,inactive: -3.79%
17,COc1ccc(C)cc1-n1c(-c2ccc(Cl)cc2)cc2c1CC(C)(C)CC2=O,inactive: 1.08%
18,Cc1cccn2c(=O)c3cc(C(=O)NCC(C)C)sc3nc12,inactive: 0.428%
19,COc1ccc(N2CCN(C(CNS(=O)(=O)c3ccc(OC)c(C)c3)c3ccco3)CC2)cc1 (stereo unspecified),inactive: -15.8%
